Experimental data: patent US12037395 (IMMVIRA, dated 2024)

Tests used:
[1] = biological target: T1, human PD-1 on PD-1 Effector Cell Line (Genscript, GS-J2/PD-1) (human, UniProt Q15116 25-288); experiment: cell-based or functional assay
[2] = biological target: T2, cynomolgus monkey PD-1-his protein (Acro biosystems, #PD-1-C5223) (cynomolgus monkey, UniProt B0LAJ3 25-170); experiment: SPR (Biacore)
T2 construct: Bought protein; also called Cynomolgus PD-1; Cynomolgus PD1

[3] = biological target: T3, recombinant human PD-1-his (Sino biological, #10377-H08H) (human, UniProt Q15116 part only); experiment: SPR (Biacore)
T3 construct: Bought protein; also called Human PD-1-his protein; not shown: his tag

[4] = biological target: T1, human PD-1 on PD-1 Effector Cell Line …; experiment: cell-based or functional assay; remark: listed apart in the source

T2 sequence (B0LAJ3 entry or part of it limits assumed): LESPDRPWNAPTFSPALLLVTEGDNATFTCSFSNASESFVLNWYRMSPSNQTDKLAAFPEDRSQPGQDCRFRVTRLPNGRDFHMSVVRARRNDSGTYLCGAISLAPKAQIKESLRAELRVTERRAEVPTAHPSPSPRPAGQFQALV

Cell-based reporter assay (EC50, nM) [1]: 8.53 nM
Kd [2]: 0.845 nM
Kd [3]: 0.881 nM
Cell-based functional reporter assay (IC50, nM) [4]: 8.53 nM
B1: Chimeric C1E1 antibody (antibody, human IgG1, kappa)
heavy: EVMLVESGGGLVKPGGSLKLSCAASGFTFSSYLMSWVRQTPEKRLEWVATISGGGGDTYFPDSVKGRFTISRDNVKNNLYLQMSSLRSEDTALYYCVRFGGAGYYWYFDVWGAGTTVTVSS[human IgG1 constant region not printed]
light: DIVLTQSPASLAVSLGQRATISCRASKSVDDSGISFMHWFQQKPGQPPKLLIYAASNQGSGVPARFRGSGSGTDFSLNIHPMEEDDTAMYFCHQTKEVPWTFGGGTKLEIKRTVAAPSVFIFPPSDEQLKSGTASVVCLLNNFYPREAKVQWKVDNALQSGNSQESVTEQDSKDSTYSLSSTLTLSKADYEKHKVYACEVTHQGLSSPVTKSFNRGEC
notes: Mouse C1E1 variable domains on human IgG1/kappa constant regions; also called chC1E1
